Reference: PubChem BioAssay AID248 (DTP/NCI, 2004)
Toxic doses and inconclusive results are not listed. Some entries of the source have several records that differ or are many. They are shown here; other results are not. The source may hold further records. Values that stand side by side are repeated measurements (runs, samples, wells, individuals or studies).

Test system: L1210 leukemia ip in BDF1 mice, survival T/C
Test: NCI In Vivo Anticancer Drug Screen. Data for tumor model L1210 Leukemia (intraperitoneal) in B6D2F1 (BDF1) mice
Conditions: endpoint: mean survival time, higher = longer survival

With CCOc1cccc(NNc2ccccc2OCC)c1 as the compound, how does the T/C (dose: 100.0 mg/kg/injection, schedule: Q01DX001 (ip), vehicle: other) read?
The T/C was 92 % of control and 155 % of control.

For CN(CCO)C1=C(N2CC2)C(=O)C(N(C)CCO)=C(N2CC2)C1=O, which T/C (dose: 0.37 mg/kg/injection, schedule: Q04DX003 (ip), vehicle: saline) is on record?
The T/C was 114 % of control and 157 % of control.

Which results are given for [Cl][Pt+2][Cl].[NH-]c1ccc(Cl)cc1[NH-]?
T/C (dose: 200.0 mg/kg/injection, schedule: Q04DX003 (ip), vehicle: saline): 118 % of control and 180 % of control; T/C (dose: 400.0 mg/kg/injection, schedule: Q04DX003 (ip), vehicle: saline): 100 % of control and 152 % of control

What does the source list for CC(=O)OCC1OC(n2ccc(NC(=S)Nc3ccn(C4OC(COC(C)=O)C(OC(C)=O)C4OC(C)=O)c(=O)n3)nc2=O)C(OC(C)=O)C1OC(C)=O (configuration not stated)?
T/C (dose: 200.0 mg/kg/injection, schedule: Q01DX009 (ip), vehicle: saline): 98 % of control and 179 % of control; T/C (dose: 400.0 mg/kg/injection, schedule: Q01DX009 (ip), vehicle: saline): 98 % of control and 173 % of control

With O=NN(CCCl)C(=O)Nc1ccccc1 as the compound, how does the T/C (dose: 12.0 mg/kg/injection, schedule: Q01DX Z (ip), vehicle: carboxymethylcellulose (CMC)) read?
The T/C was 107 % of control, 182 % of control, 197 % of control.

Which results are given for O=Cc1c2ccccc2cc2ccccc12?
T/C (dose: 9.7 mg/kg/injection, schedule: Q01DX015 (ip), vehicle: saline): 97 % of control and 157 % of control; T/C (dose: 16.2 mg/kg/injection, schedule: Q01DX015 (ip), vehicle: saline): 93 % of control, 98 % of control, 158 % of control; T/C (dose: 27.0 mg/kg/injection, schedule: Q01DX015 (ip), vehicle: saline): 96 % of control, 107 % of control, 151 % of control

How did the T/C (dose: 8.0 mg/kg/injection, schedule: Q01DX Z (ip), vehicle: carboxymethylcellulose (CMC)) turn out when CCCC(=O)OCC1OC(n2cnc3c(=S)nc(N)[nH]c32)C(OC(=O)CCC)C1OC(=O)CCC (configuration not stated) was run?
The T/C was 118 % of control and 157 % of control.

Which T/C (dose: 38.0 mg/kg/injection, schedule: Q01DX Z (ip), vehicle: saline) does the source give for CC1CN1P(=O)(N1CCCCC1)N1CC1C (configuration not stated) here?
The T/C was 106 % of control and 150 % of control.
